Assay results as given in the supplement of paper PMC4466236.
Over roughly 33,000 sequences, “E-score (dimensionless, -0.5 to 0.5)” has its median near -0.058; the highest 2% begin near 0.35. The list shows a part of the results.

What follows are sequences tested on MvaT (assay: PBM 8-mer E-score (mean of HK and ME arrays) (E-score (dimensionless, -0.5 to 0.5)); higher = stronger relative binding preference; most listed sequences are background and not binding sites).
In short: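 Reported values are rank-based E-scores, taken as the mean of two universal arrays and parsed with a custom script. Each 8-mer score falls between -0.5 and 0.5. The arrays, ME and HK, were double-stranded 60-mers with a constant 25-mer primer region and a variable 35-mer region covering all 8-mers. They were probed, by an earlier protocol, with full-length P. aeruginosa MvaT carrying an N-terminal glutathione S-transferase fusion.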

Row | Sequence | PBM 8-mer E-score
1 | ATTCCCGA | -0.0402
2 | ACGTTTAC | 0.0903
3 | CGAATGGA | -0.122
4 | TGTTTTAA | 0.302
5 | AGACTCAA | -0.0469
6 | CTAAAACA | 0.2
7 | CCTCGGTC | -0.303
8 | CATTAGAG | 0.036
9 | CTTAGAAC | 0.124
10 | AATGAATG | 0.00614
11 | GGGGCGGA | -0.221
12 | TACACTCA | 0.121
13 | CATCCGGA | -0.0793
14 | ACCCACCA | -0.0403
15 | ATGTCGAA | 0.0966
16 | AGCTATCC | -0.166
17 | TAGTGTGA | 0.145
18 | AGTCGCGA | -0.0684
19 | AAGTTACA | 0.264
20 | ACAAATGG | 0.0586
21 | CTGTACTA | 0.118
22 | CTACACGC | -0.107

Row | Sequence | PBM 8-mer E-score
23 | AGAAGACC | -0.178
24 | GATTAAAA | 0.217
25 | CACATGGC | -0.224
26 | CATACCAC | 0.0509
27 | CCGCGTGC | -0.212
28 | AGGTTCAT | -0.155
29 | CGTAACTC | 0.0244
30 | ACACACCC | -0.0306
31 | TGGATAAA | 0.296
32 | ACGTATCC | -0.0828
33 | CGTTGTCC | -0.188
34 | CCCTGGAA | -0.276
35 | AGCACGGA | -0.111
36 | TCACAAAA | 0.0702
37 | CTTGTGTC | -0.17
38 | CCCGGGAC | -0.246
39 | CTATGGCC | -0.0652
40 | CCTGCCGA | -0.182
41 | TCCATAGA | -0.0508
42 | GTACACTA | 0.261
43 | ATGCCAAG | -0.144
44 | CCAACTCG | -0.00523

Row | Sequence | PBM 8-mer E-score
45 | ACGGGTTA | 0.0693
46 | CCCGAGGC | -0.179
47 | CAGCCCCA | -0.211
48 | CCTATGAA | -0.166
49 | GGATACAA | 0.0627
50 | GCAAGGTA | -0.00235
51 | CAAAGGCG | -0.176
52 | ATTGTGAA | 0.2
53 | TGGGGACA | -0.2
54 | GAGTCTCA | -0.0066
55 | AGACATTA | 0.196
56 | CCTTAAAC | 0.0162
57 | CGGACCGA | -0.16
58 | CATTATTA | 0.432
59 | CACCGCGG | -0.201
60 | ACCTCACA | -0.058
61 | ACCTCGAG | -0.205
62 | AATACGAC | 0.0718
63 | CGAGAGAG | -0.162
64 | GGCGGCCC | -0.363
65 | AACATTCA | 0.152
66 | GTCGTTGA | -0.0908

Row | Sequence | PBM 8-mer E-score
67 | CCATTAGG | -0.237
68 | CGAACGAG | -0.0661
69 | GGCCATAA | 0.00337
70 | CCGGATAC | -0.146
71 | AATACATC | 0.173
72 | AGCGGCTC | -0.201
73 | AATCTGGA | 0.0976
74 | CTTTCTAA | 0.221
75 | ATACCCCA | -0.0573
76 | ACTTACTA | 0.295
77 | CGACTCAG | -0.144
78 | AGGATCAA | -0.174
79 | ATAATCTG | 0.196
80 | AAATCCCT | -0.0564
81 | ACCCCACC | -0.268
82 | CAAGATCA | 0.122
83 | GTGTCTAA | 0.0832
84 | ACGACTTG | -0.0579
85 | ACGCAAAG | -0.0201
86 | AAAGTCCT | -0.0507
87 | AGACGAAG | -0.131
88 | AAATGCAA | 0.218

Row | Sequence | PBM 8-mer E-score
89 | CGACGATA | -0.015
90 | AACGTGGA | -0.028
91 | CATGAAGA | 0.125
92 | AAGGGAGT | -0.0241
93 | GTCCTATA | 0.0773
94 | AAAGGGCA | 0.0253
95 | ATAAGACA | 0.249
96 | CAACTTCA | 0.217
97 | TGGGAACA | -0.0177
98 | AGTTCTGA | 0.144
99 | CGCGTATC | -0.027
100 | AGGTAATC | -0.121
101 | ATTCCGGG | 0.061
102 | AGCCCACG | -0.235
103 | ACAACAGC | -0.0433
104 | CTGCTTAC | 0.0204
105 | CAGAACGC | -0.223
106 | GAACCCGA | -0.178
107 | GAATGAAC | 0.0232
108 | AGGTAACA | -0.115
109 | GCAATCCC | 0.0218
110 | AAGCAGCG | -0.00654
